According to patent US20210340207A1 (Merck Sharp & Dohme, published 2021):
Values belong to the binder of their own block, whether it stands above or below them.

Legend:
[1] = molecular target: T1, human IL-2Rβγc (on DERL-7 cells, U2OS IL2RB/IL2RG cells, CD25 knockout Kit225-STAT5 cells, primary CD8+ CTLs) (human, UniProt P14784 27-551; P31785 23-369); assay: cell-based or functional assay
T1 sequence (looked up) 1: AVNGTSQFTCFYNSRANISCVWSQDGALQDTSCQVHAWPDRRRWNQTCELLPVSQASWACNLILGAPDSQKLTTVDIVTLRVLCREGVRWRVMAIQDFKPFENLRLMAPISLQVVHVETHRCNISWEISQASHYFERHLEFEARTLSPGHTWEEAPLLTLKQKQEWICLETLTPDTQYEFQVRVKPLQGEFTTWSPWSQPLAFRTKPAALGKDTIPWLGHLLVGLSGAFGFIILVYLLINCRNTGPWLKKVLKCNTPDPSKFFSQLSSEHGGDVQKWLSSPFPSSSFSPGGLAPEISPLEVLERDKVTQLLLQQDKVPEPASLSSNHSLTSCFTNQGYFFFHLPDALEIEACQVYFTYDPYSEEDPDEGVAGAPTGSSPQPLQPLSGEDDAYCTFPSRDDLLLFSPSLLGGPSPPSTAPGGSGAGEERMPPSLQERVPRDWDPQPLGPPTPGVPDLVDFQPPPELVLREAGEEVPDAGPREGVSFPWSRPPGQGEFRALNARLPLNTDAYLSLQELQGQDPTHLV
T1 sequence (looked up) 2: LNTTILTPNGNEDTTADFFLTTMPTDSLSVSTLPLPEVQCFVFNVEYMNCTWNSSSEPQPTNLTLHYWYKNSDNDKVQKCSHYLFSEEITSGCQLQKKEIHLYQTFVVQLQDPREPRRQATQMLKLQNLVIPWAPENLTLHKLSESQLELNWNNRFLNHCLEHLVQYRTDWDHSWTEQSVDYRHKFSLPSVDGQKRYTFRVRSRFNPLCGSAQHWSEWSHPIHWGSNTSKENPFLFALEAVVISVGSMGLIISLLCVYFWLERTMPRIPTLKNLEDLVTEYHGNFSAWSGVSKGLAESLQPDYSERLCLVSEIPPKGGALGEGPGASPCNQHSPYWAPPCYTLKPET

[2] = molecular target: T2, IL-2Rα-Fc (Acro Biosystems, catalog #ILA-H5251) (UniProt P01589 22-213); assay: SPR, receptor-Fc captured on anti-Fc, IL-2 variant as analyte
T2 construct: not shown: Fc
T2 sequence (looked up): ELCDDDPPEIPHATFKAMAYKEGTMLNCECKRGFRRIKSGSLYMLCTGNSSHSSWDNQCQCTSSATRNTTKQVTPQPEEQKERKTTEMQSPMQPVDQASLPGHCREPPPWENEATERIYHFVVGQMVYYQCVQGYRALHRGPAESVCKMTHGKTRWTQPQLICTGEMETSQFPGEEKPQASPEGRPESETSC
Protocol: Anti-Fc polyclonal antibodies are immobilized onto a CM5 chip (GE Life Sciences) using amine coupling chemistry (from Amine Coupling Kit, GE Life Sciences). The immobilization steps are carried out at a flow rate of 25 μL/minute in 1×HBS-EP+ buffer (GE Life Sciences; 10× Stock diluted before use). The sensor surfaces are activated for 7 min with a mixture of NHS (0.05 M) and EDC (0.2 M). The anti-Fc antibodies are injected over all four flow cells at a concentration of 25 μg/mL in 10 mM sodium acetate, pH 4.5, for seven minutes. Ethanolamine (1 M, pH 8.5) is injected for seven minutes to block any remaining activated groups. An average of 12,000 response units (RU) of capture antibody is immobilized on each flow cell.
Kinetic binding experiments are performed at 25° C. using 1×HBS-EP+ buffer. IL-2Rα-Fc or IL-2Rβ-Fc (Acro Biosystems, catalog #ILA-H5251, ILB-H5253) are injected over the anti-Fc surface at concentrations of 3-10 μg/mL for 12 seconds at a flow rate of 10 μL/minute on flow cells 2, 3 and 4, followed by a buffer wash for 30 seconds at the same flow rate. Kinetic characterization of conjugated or unconjugated aldesleukin or variants is carried out in a range of concentrations from 1 nM-10 μM and one injection of no antigen. […]

[3] = molecular target: T3, human IL-2Rαβγc (on Kit225-STAT5 reporter cells, NK-92 cells, primary Treg cells) (human, UniProt P01589 22-272; P14784 27-551; P31785 23-369); assay: cell-based or functional assay
T3 sequence (looked up) 1: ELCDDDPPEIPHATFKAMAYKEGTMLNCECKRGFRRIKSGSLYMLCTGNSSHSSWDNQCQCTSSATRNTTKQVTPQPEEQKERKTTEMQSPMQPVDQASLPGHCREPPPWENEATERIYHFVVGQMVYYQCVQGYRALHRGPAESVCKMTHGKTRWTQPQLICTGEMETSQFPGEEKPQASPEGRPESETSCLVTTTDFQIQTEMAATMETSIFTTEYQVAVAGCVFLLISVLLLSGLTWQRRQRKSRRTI
T3 sequence (looked up) 2: T1 sequence (looked up) 1
T3 sequence (looked up) 3: T1 sequence (looked up) 2

[4] = molecular target: T4, Rat IL-2Rα, His tag (Table 10) (rat, UniProt P26897 22-235, limits assumed); assay: SPR (Biacore T200), receptor captured on anti-histidine surface
T4 construct: not shown: polyhistidine tag (tag cell printed once at r13)
T4 sequence (looked up): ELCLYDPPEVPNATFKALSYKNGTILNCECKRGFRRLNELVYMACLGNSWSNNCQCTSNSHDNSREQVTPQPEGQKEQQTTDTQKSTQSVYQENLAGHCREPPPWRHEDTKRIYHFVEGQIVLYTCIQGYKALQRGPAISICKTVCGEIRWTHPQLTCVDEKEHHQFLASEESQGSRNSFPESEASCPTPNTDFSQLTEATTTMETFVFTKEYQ
Protocol: A Surface Plasmon Resonance (SPR) assay on a Biacore T200 (GE Healthcare) instrument was used to determine the monovalent affinities of pegylated aldesleukin variants against polyhistidine-tagged or Fc-tagged IL-2 Receptors. Biacore T200 Evaluation Software was used to fit each titration series to a 1:1 binding model or steady state affinity. The association (kₒₙ, M⁻¹ s⁻¹) and dissociation (koff, s⁻¹) rate constants were determined for each set of titrations and used to calculate the dissociation constant, KD=koff/kₒₙ, of each sample against each receptor. koff/kₒₙ values are not reported herein.
To measure the affinity of CON1 and aldesleukin for IL-2R subunits, receptors were captured on either an anti-histidine or anti-hu Fc antibody surface. […] CON1 has a six-fold lower affinity for Human and Cynomolgus/Rhesus IL-2-Rβ than aldesleukin.

U2OS B/BG EC50 Fold Change [1]: 1 fold | U2OS B/BG bridging cell assay EC50 [1]: 0.159 nM | Kd [2]: 8 nM | NK-92 EC50 Fold Change [3]: 1 fold | NK-92 cell assay EC50 [3]: 0.007 nM
B1: Ald-6HIS (ligand)
chain: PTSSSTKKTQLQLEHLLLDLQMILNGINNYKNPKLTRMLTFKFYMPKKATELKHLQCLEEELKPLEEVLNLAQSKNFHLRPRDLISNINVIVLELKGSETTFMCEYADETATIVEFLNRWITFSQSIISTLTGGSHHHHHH
notes: also called aldesleukin with carboxyl-terminus HIS6-tag linked via a Gly-Gly-Ser linker

KD/KD (human) [4]: 1.8 ratio | Kd [4]: 29 nM
B2: Aldesleukin (DesA1_IL-2_C124S) (ligand)
chain: not shown
